# The other results are listed elsewhere or left out.
# Key:
# Test in all cases: glycan array binding signal (z-score within array); higher = stronger binding
# Details in all cases: glycan notation: IUPAC condensed, linker removed
# [1] = target: Gal(a1-2)Gal
# Outline: (§1)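 Negative Z-scores can be read as non-binding. The Z-score is calculated within each array and then averaged across arrays of one protein sequence at different concentrations or buffers and across linkers. Arrays, 3228 in all, were curated from the Consortium for Functional Glycomics database and kept only where the protein sequence was available.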
# [2] = target: Gal(a1-3)Gal
# Outline: as §1
# [3] = target: Gal(a1-3)Gal(b1-3)GlcNAc
# Outline: as §1
# [4] = target: Gal(a1-3)Gal(b1-4)Glc
# Outline: as §1
# [5] = target: Gal(a1-3)Gal(b1-4)GlcNAc
# Outline: as §1
# [6] = target: Gal(a1-3)Gal(b1-4)[Fuc(a1-3)]GlcNAc
# Outline: as §1
# [7] = target: Gal(a1-3)Gal(b1-4)[Fuc(a1-3)]GlcNAc(b1-2)Man(a1-3)[Gal(a1-3)Gal(b1-4)[Fuc(a1-3)]GlcNAc(b1-2)Man(a1-6)]Man(b1-4)GlcNAc(b1-4)GlcNAc
# Outline: as §1
# [8] = target: Gal(a1-3)GalNAc
# Outline: as §1
# [9] = target: Gal(a1-3)[Gal(a1-4)]Gal(b1-4)GlcNAc
# Outline: as §1
# [10] = target: Gal(a1-4)Gal(b1-4)Glc
# Outline: as §1
# [11] = target: Gal(a1-4)Gal(b1-4)GlcNAc
# Outline: as §1
# [12] = target: Gal(a1-4)Gal(b1-4)GlcNAc(b1-3)Gal(b1-4)Glc
# Outline: as §1
# [13] = target: Gal(a1-4)GlcNAc
# Outline: as §1
# [14] = target: Gal(a1-6)Glc
# Outline: as §1
# [15] = target: Gal(b1-2)Gal
# Outline: as §1
# [16] = target: Gal(b1-3)Gal
# Outline: as §1
# [17] = target: Gal(b1-3)Gal(b1-4)GlcNAc
# Outline: as §1
# [18] = target: Gal(b1-3)Gal(b1-4)GlcNAc(b1-2)Man(a1-3)[Gal(b1-3)Gal(b1-4)GlcNAc(b1-2)Man(a1-6)]Man(b1-4)GlcNAc(b1-4)GlcNAc
# Outline: as §1
# [19] = target: Gal(b1-3)GalNAc
# Outline: as §1
# [20] = target: Gal(b1-3)GalNAc(a1-3)[Fuc(a1-2)]Gal(b1-4)Glc
# Outline: as §1
# [21] = target: Gal(b1-3)GalNAc(a1-3)[Fuc(a1-2)]Gal(b1-4)GlcNAc
# Outline: as §1
# [22] = target: Gal(b1-3)GalNAc(b1-3)Gal(a1-4)Gal(b1-4)Glc
# Outline: as §1
# [23] = target: Gal(b1-3)GalNAc(b1-4)Gal(b1-4)Glc
# Outline: as §1
# [24] = target: Gal(b1-3)GalNAc(b1-4)[Neu5Ac(a2-3)]Gal(b1-4)Glc
# Outline: as §1
# [25] = target: Gal(b1-3)GlcNAc
# Outline: as §1
# [26] = target: Gal(b1-3)GlcNAc(b1-2)Man(a1-3)[Gal(b1-3)GlcNAc(b1-2)Man(a1-6)]Man(b1-4)GlcNAc(b1-4)GlcNAc
# Outline: as §1
# [27] = target: Gal(b1-3)GlcNAc(b1-2)Man(a1-3)[Gal(b1-3)GlcNAc(b1-2)Man(a1-6)]Man(b1-4)GlcNAc(b1-4)[Fuc(a1-6)]GlcNAc
# Outline: as §1
# [28] = target: Gal(b1-3)GlcNAc(b1-3)Gal(b1-3)GlcNAc
# Outline: as §1
# [29] = target: Gal(b1-3)GlcNAc(b1-3)Gal(b1-4)Glc
# Outline: as §1
# [30] = target: Gal(b1-3)GlcNAc(b1-3)Gal(b1-4)GlcNAc
# Outline: as §1
# [31] = target: Gal(b1-3)[Fuc(a1-4)]GlcNAc
# Outline: as §1
# [32] = target: Gal(b1-3)[Fuc(a1-4)]GlcNAc(b1-2)Man(a1-3)[Gal(b1-3)[Fuc(a1-4)]GlcNAc(b1-2)Man(a1-6)]Man(b1-4)GlcNAc(b1-4)GlcNAc
# Outline: as §1
# [33] = target: Gal(b1-3)[Fuc(a1-4)]GlcNAc(b1-2)Man(a1-3)[Gal(b1-3)[Fuc(a1-4)]GlcNAc(b1-2)Man(a1-6)]Man(b1-4)GlcNAc(b1-4)[Fuc(a1-6)]GlcNAc
# Outline: as §1
# [34] = target: Gal(b1-3)[Fuc(a1-4)]GlcNAc(b1-3)Gal(b1-3)[Fuc(a1-4)]GlcNAc
# Outline: as §1
# [35] = target: Gal(b1-3)[Fuc(a1-4)]GlcNAc(b1-3)Gal(b1-4)GlcNAc
# Outline: as §1
# [36] = target: Gal(b1-3)[Fuc(a1-4)]GlcNAc(b1-3)Gal(b1-4)[Fuc(a1-3)]GlcNAc
# Outline: as §1
# [37] = target: Gal(b1-3)[GlcNAc(b1-6)]GalNAc
# Outline: as §1
# [38] = target: Gal(b1-3)[Neu5Ac(a2-6)]GalNAc
# Outline: as §1
# [39] = target: Gal(b1-3)[Neu5Ac(a2-6)]GlcNAc(b1-6)Gal(b1-4)Glc
# Outline: as §1
# [40] = target: Gal(b1-3)[Neu5Ac(b2-6)]GalNAc
# Outline: as §1
# [41] = target: Gal(b1-4)GalNAc(a1-3)[Fuc(a1-2)]Gal(b1-4)GlcNAc
# Outline: as §1
# [42] = target: Gal(b1-4)GalNAc(b1-3)[Fuc(a1-2)]Gal(b1-4)GlcNAc
# Outline: as §1
# [43] = target: Gal(b1-4)Glc
# Outline: as §1
# [44] = target: Gal(b1-4)Glc6S
# Outline: as §1
# [45] = target: Gal(b1-4)GlcNAc
# Outline: as §1
# [46] = target: Gal(b1-4)GlcNAc(a1-6)Gal(b1-4)GlcNAc
# Outline: as §1
# [47] = target: Gal(b1-4)GlcNAc(b1-2)Man(a1-3)Man(b1-4)GlcNAc(b1-4)GlcNAc
# Outline: as §1
# [48] = target: Gal(b1-4)GlcNAc(b1-2)Man(a1-3)[Gal(b1-4)GlcNAc(b1-2)Man(a1-6)]Man(b1-4)GlcNAc(b1-4)GlcNAc
# Outline: as §1
# [49] = target: Gal(b1-4)GlcNAc(b1-2)Man(a1-3)[Gal(b1-4)GlcNAc(b1-2)Man(a1-6)]Man(b1-4)GlcNAc(b1-4)[Fuc(a1-6)]GlcNAc
# Outline: as §1
# [50] = target: Gal(b1-4)GlcNAc(b1-2)Man(a1-3)[Man(a1-6)]Man(b1-4)GlcNAc(b1-4)GlcNAc
# Outline: as §1
# [51] = target: Gal(b1-4)GlcNAc(b1-2)Man(a1-6)Man(b1-4)GlcNAc(b1-4)GlcNAc
# Outline: as §1
# [52] = target: Gal(b1-4)GlcNAc(b1-2)Man(a1-6)[Man(a1-3)]Man(b1-4)GlcNAc(b1-4)GlcNAc
# Outline: as §1
# [53] = target: Gal(b1-4)GlcNAc(b1-2)[Gal(b1-4)GlcNAc(b1-4)]Man(a1-3)[Gal(b1-4)GlcNAc(b1-2)Man(a1-6)]Man(b1-4)GlcNAc(b1-4)GlcNAc
# Outline: as §1
# [54] = target: Gal(b1-4)GlcNAc(b1-3)Gal(b1-3)GlcNAc
# Outline: as §1
# [55] = target: Gal(b1-4)GlcNAc(b1-3)Gal(b1-4)Glc
# Outline: as §1
# [56] = target: Gal(b1-4)GlcNAc(b1-3)Gal(b1-4)GlcNAc
# Outline: as §1
# [57] = target: Gal(b1-4)GlcNAc(b1-3)Gal(b1-4)GlcNAc(b1-3)Gal(b1-4)GlcNAc
# Outline: as §1
# [58] = target: Gal(b1-4)GlcNAc(b1-3)Gal(b1-4)[Fuc(a1-3)]GlcNAc(b1-3)Gal(b1-4)[Fuc(a1-3)]GlcNAc
# Outline: as §1
# [59] = target: Gal(b1-4)GlcNAc(b1-3)GalNAc
# Outline: as §1
# [60] = target: Gal(b1-4)GlcNAc(b1-3)[Gal(b1-4)GlcNAc(b1-6)]Gal(b1-4)GlcNAc
# Outline: as §1
binder,measurement,setting,value
"Flo11 (Saccharomyces cerevisiae), Q1H8S8 (protein) MGSSHHHHHHSSGLVPRGSHMFPTALVPRGSSEGTSCNSIVNGCPNLDFNWHMDQQNIMQYTLDVTSVSWVQDNTYQITIHVKGKENIDLKYLWSLKIIGVTGPKGTVQLYGYNENTYLIDNPTDFTATFEVYATQDVNSCQVWMPNFQIQFEYLQGSAAQYASSWQWGTTSFDLSTGCNNYDNQGHSQTDFPGFYWNIDCDNNCGGTKSS",glycan array binding signal (z-score),[1],-0.506
same,glycan array binding signal (z-score),[2],-0.49
same,glycan array binding signal (z-score),[3],-0.5
same,glycan array binding signal (z-score),[4],-0.504
same,glycan array binding signal (z-score),[5],-0.506
same,glycan array binding signal (z-score),[6],-0.499
same,glycan array binding signal (z-score),[7],1.3
same,glycan array binding signal (z-score),[8],-0.49
same,glycan array binding signal (z-score),[9],-0.506
same,glycan array binding signal (z-score),[10],-0.507
same,glycan array binding signal (z-score),[11],-0.506
same,glycan array binding signal (z-score),[12],2.42
same,glycan array binding signal (z-score),[13],-0.503
same,glycan array binding signal (z-score),[14],-0.499
same,glycan array binding signal (z-score),[15],-0.51
same,glycan array binding signal (z-score),[16],-0.483
same,glycan array binding signal (z-score),[17],-0.46
same,glycan array binding signal (z-score),[18],-0.509
same,glycan array binding signal (z-score),[19],1.73
same,glycan array binding signal (z-score),[20],-0.028
same,glycan array binding signal (z-score),[21],1.2
same,glycan array binding signal (z-score),[22],2.47
same,glycan array binding signal (z-score),[23],2.27
same,glycan array binding signal (z-score),[24],2.88
same,glycan array binding signal (z-score),[25],-0.506
same,glycan array binding signal (z-score),[26],-0.505
same,glycan array binding signal (z-score),[27],-0.494
same,glycan array binding signal (z-score),[28],1.86
same,glycan array binding signal (z-score),[29],1.71
same,glycan array binding signal (z-score),[30],1.97
same,glycan array binding signal (z-score),[31],-0.505
same,glycan array binding signal (z-score),[32],-0.405
same,glycan array binding signal (z-score),[33],-0.424
same,glycan array binding signal (z-score),[34],-0.505
same,glycan array binding signal (z-score),[35],-0.501
same,glycan array binding signal (z-score),[36],-0.502
same,glycan array binding signal (z-score),[37],-0.464
same,glycan array binding signal (z-score),[38],-0.473
same,glycan array binding signal (z-score),[39],-0.496
same,glycan array binding signal (z-score),[40],-0.494
same,glycan array binding signal (z-score),[41],-0.456
same,glycan array binding signal (z-score),[42],-0.449
same,glycan array binding signal (z-score),[43],-0.503
same,glycan array binding signal (z-score),[44],-0.505
same,glycan array binding signal (z-score),[45],-0.502
same,glycan array binding signal (z-score),[46],-0.498
same,glycan array binding signal (z-score),[47],-0.501
same,glycan array binding signal (z-score),[48],-0.498
same,glycan array binding signal (z-score),[49],-0.495
same,glycan array binding signal (z-score),[50],-0.496
same,glycan array binding signal (z-score),[51],-0.507
same,glycan array binding signal (z-score),[52],-0.506
same,glycan array binding signal (z-score),[53],-0.449
same,glycan array binding signal (z-score),[54],1.69
same,glycan array binding signal (z-score),[55],2.41
same,glycan array binding signal (z-score),[56],2.11
same,glycan array binding signal (z-score),[57],2.33
same,glycan array binding signal (z-score),[58],0.593
same,glycan array binding signal (z-score),[59],1.49
same,glycan array binding signal (z-score),[60],-0.507

# Source: the supplement of paper PMC8728848
